Laboratory results: paper PMC6919601, “Identification of Plasmodium dipeptidyl aminopeptidase allosteric inhibitors by high throughput screening” (PLoS ONE, 2019)
Hit rate of the full screen: of about 110,000 compounds, about 230 (0.21%) showed an effect of 50% or more. This is one part of the list.

These compounds were tested against DPAP1 (Plasmodium falciparum, UniProt Q8IIJ9) (assay: primary screen, percent inhibition; read by cleavage of a fluorogenic dipeptide substrate; higher = more effect of the substance).
Parameters: species or system P. falciparum D10 trophozoite lysates; single well
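Also: 30 min substrate incubation versus DMSO and 10 µM JCP410 controls.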

Sequence of DPAP1 (Q8IIJ9 whole entry, looked up): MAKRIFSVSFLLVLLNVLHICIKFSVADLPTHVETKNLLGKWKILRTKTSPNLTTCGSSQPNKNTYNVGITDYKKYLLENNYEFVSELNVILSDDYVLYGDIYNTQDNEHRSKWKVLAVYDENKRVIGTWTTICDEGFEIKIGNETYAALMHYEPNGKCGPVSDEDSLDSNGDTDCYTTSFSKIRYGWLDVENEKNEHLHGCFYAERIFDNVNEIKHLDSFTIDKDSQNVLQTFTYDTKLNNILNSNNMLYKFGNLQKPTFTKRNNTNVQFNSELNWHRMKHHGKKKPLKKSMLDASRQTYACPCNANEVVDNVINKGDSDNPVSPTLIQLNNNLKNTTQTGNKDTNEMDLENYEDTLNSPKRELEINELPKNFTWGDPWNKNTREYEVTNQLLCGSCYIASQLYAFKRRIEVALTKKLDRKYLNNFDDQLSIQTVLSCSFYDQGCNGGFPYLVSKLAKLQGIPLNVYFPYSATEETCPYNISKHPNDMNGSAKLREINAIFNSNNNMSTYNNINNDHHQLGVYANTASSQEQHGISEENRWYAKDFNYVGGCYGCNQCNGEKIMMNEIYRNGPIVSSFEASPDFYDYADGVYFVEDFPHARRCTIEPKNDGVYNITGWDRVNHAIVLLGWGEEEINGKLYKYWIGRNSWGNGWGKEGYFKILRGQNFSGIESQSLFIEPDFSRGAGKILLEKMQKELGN

Compound	% Inhibition @ 10 uM [%]
CC1=CC(C)(C)NC(=S)N1c1ccc(O)cc1	-1.91
O=C1c2ccccc2NC(c2ccc3c(c2)OCO3)N1Cc1ccco1 (centres unmarked)	-2.89
O=C(C(Cc1ccccc1)N1C(=O)c2ccccc2C1=O)N1CCCCC1 (centres unmarked)	-1.96
CCc1ccc(-c2cc(C(F)(F)F)n3nc(C(=O)Nc4cccnc4)cc3n2)s1	-3.92
CC(CCCC(C)(C)O)NC1CCCCCC1 (centres unmarked)	-2.91
COc1ccc(C(=O)C2=C(O)C(=O)N(c3ccccn3)C2c2ccc(C(C)C)cc2)cc1 (centres unmarked)	2.17
O=C(O)CCC(=O)Nc1ccccc1C(=O)Nc1ccccc1	17.4
CCOC(=O)CSc1nc(N)c(C#N)c(-c2ccc(O)cc2)c1C#N	2.55
C#CCSCc1nc2ccccc2[nH]1	2.73
O=S(=O)(Nc1ccc2c(c1)OCCO2)c1cccc(F)c1	-10.1
C=Cc1ccc(CSc2nncn3c2cc2oc(C)cc23)cc1	-0.553
CCN(CC)CCN(C)Cc1c(F)cccc1Cl	0.273
COc1ccc(CCN2C(=O)CC(N3CCN(C/C=C/c4ccccc4)CC3)C2=O)cc1OC (centres unmarked)	-3.33
O=C(CCc1nc(CN2CCN(C(=O)c3cc(-c4cccs4)on3)CC2)no1)N1CCOCC1	-2.93
COc1ccc2c(c1)OC13CCCCC1C2C(C(=O)c1ccccc1)C(=O)N3 (centres unmarked)	-4.01
O=C(O)c1sc2c(ccc3ccccc32)c1Br	-6.68
Cc1ccc(-c2nc(CS(=O)CC(=O)NC3CCCc4ccccc43)c(C)o2)cc1 (centres unmarked)	-1.05
COc1cccc(C2c3c(oc4ccccc4c3=O)C(=O)N2c2nccs2)c1OC (centres unmarked)	-1.35
CCCn1c2ccccc2c2cnn(CC(=O)Nc3nnc(CC)s3)c(=O)c21	6.35
Cc1ccc(-c2csc(-c3cc4cc(Br)cc([N+](=O)[O-])c4oc3=O)n2)c(C)c1	-7.99
O=C(NCCCN1CCOCC1)C(=O)NCC(c1cccnc1)N1CCOCC1 (centres unmarked)	1.68
CCS(=O)(=O)C1=NSC2=NC(=O)/C(=C\c3ccc(OCc4ccc(F)cc4)cc3)C(=N)N21	-5.27
O=S(=O)(NC1CCC(NS(=O)(=O)c2ccc(F)cc2)CC1)c1ccc(F)cc1 (centres unmarked)	-1.02
CCCS(=O)(=O)c1nc(S(=O)(=O)c2ccc(C)cc2)c(NC(C)CC)s1 (centres unmarked)	-5.89
C=CCNCc1cccn1-c1ccccc1	2.6
Cc1ccc(NC(=O)CN2C(=O)S/C(=C/c3ccc4c(c3)n(C)c(=O)n4C)C2=O)cc1Cl	12.4

Compound	% Inhibition @ 10 uM [%]
CCCCCCCN1C2=NCCN2c2ccccc21	-6.65
COc1ccc(CN2C(=O)CC(Cc3ccccc3)C2=O)cc1OC (centres unmarked)	-5.39
COc1ccc(NC(=O)c2sc3nc(-c4ccc(F)cc4)ccc3c2N)cc1OC	1.86
CS(=O)(=O)CCC(C(=O)NCCc1c[nH]c2ccccc12)N1Cc2ccccc2C1=O (centres unmarked)	7.44
C=C1C2(C(=O)Nc3ncc(Cl)cc3Cl)CCC(C2)C1(C)C (centres unmarked)	1.43
COCP(=O)(c1ccccc1)c1ccccc1	-3.41
OC1(CCC2(O)CCCC2)CCCC1	-3.38
O=c1oc(-c2ccccc2)nc2c1cnn2-c1ccccc1	-1.96
CC(=O)Nc1ccc(NC(=O)COc2ccccc2)cc1	8.19
COc1cc(C2=NOC(C(=O)N3C(C)CCCC3C)C2)cc(OC)c1OC (centres unmarked)	-7.71
Cc1ccc2[nH]c(/C(C#N)=C\c3ccc[nH]3)nc2c1	0.685
O=C(CCCN1C(=O)c2cccc3cccc(c23)C1=O)N1CCN(Cc2ccc3c(c2)OCO3)CC1	-0.622
CCc1cccc2c(C(=O)C(F)(F)F)cn(CC(N)=O)c12	-1.1
Cc1cc(C)n(-c2nc3ccccc3n3c(N)nnc23)n1	1.49
CCCCOc1cccc(C(=O)Nc2ccc(CN3CCOCC3)cc2)c1	-3.09
O=C1NC(c2ccc(F)cc2)Nc2c1sc(=S)n2-c1ccccc1 (centres unmarked)	-0.267
Cc1nc2c(-c3ccccc3)c(C)nn2c(C)c1CC(=O)NC(C)c1cccs1 (centres unmarked)	-2.45
CCN(CC)c1ccc(NC(=O)COc2ccccc2)cc1	-3.29
Cc1sc(NC(=O)C(C)C)c(C(=O)Nc2ccccc2)c1C	0.35
CN(Cc1ccccc1)C(=O)CCCOc1ccc(Cl)cc1Cl	0.215
COc1cccc2c1Oc1ncccc1N(c1ccc(C(=O)NCCCOC(C)C)s1)C2	1.44
COc1cc2c(cc1OC)C(Nc1ccc(Cl)cc1)=NC(C)(C)C2	2.67
Cc1c2cnnc(O)c2c(C)n1Cc1ccccc1F	-0.0309
CC(=O)Nc1ccc(Nc2ncnc3c2cnn3Cc2ccc(Cl)cc2)cc1	-1.89
COc1ccc(C(=O)ON2C(=O)c3cccc4cccc(c34)C2=O)cc1	0.778
O=C(O)C(Sc1nccc(-c2ccccc2)n1)c1ccccc1 (centres unmarked)	7.67

Compound	% Inhibition @ 10 uM [%]
CCC(C)NC(=O)C(Cc1ccccc1)n1cccc1 (centres unmarked)	-0.692
COCCCn1c(=N)c(C(N)=S)cc2c(=O)n3cccc(C)c3nc21	-1.47
CC1CC(C)CN(C(=O)c2cc3c(s2)-c2ccc(Cl)cc2S(=O)(=O)C3)C1 (centres unmarked)	-2.45
COc1ccc(/C(O)=C/C=N/c2ccc(NC(C)=O)cc2)cc1OC	1.35
CCOc1ccccc1NC(=O)CN(c1ccc(Br)cc1)S(C)(=O)=O	5.12
COC(=O)c1cc(S(=O)(=O)N2CCCCC2C)c[nH]1 (centres unmarked)	-4.68
COc1cc(CNC2CCCC2)ccc1OCC(=O)NC(C)(C)C	7.02
O=C(NCCc1ccccc1)c1cc2ccccc2oc1=O	5.7
O=C1NCCCC[C@@H]1NC1CCC(c2ccccc2)CC1 (some centres unmarked)	1.88
CC1=C(C(=O)Nc2cccnc2)C(c2cccc(Br)c2)n2nc(-c3ccccc3)nc2N1 (centres unmarked)	-0.545
CCC(CC)C(=O)Nc1cccc(NC(=O)C(CC)CC)c1	3.74
COc1ccccc1NC1SC(=O)N(Cc2cccc(C(=O)O)c2)C1=O (centres unmarked)	-19.7
Cc1nnc(NC(=O)CSc2nc(C)c(Cc3ccc(O)cc3)[nH]2)s1	0.883
OC(C#CCCN1CCCCC1)(c1ccccc1)C1CCCCC1 (centres unmarked)	0.774
CCO/C(O)=C1\C(C)=NC2=C(C(=O)CCC2)C1c1cc(CSc2nnnn2C)cs1 (centres unmarked)	3.66
CN1CCCN(Cc2cccc(O)c2)CC1	5.55
COc1ccc(Cn2c(=O)c(C#N)cc3c(=O)n4cc(C)ccc4nc32)cc1	-2.28
O=C(NCCC1=CCCCC1)Nc1ccc(Cl)cc1	2.44
COc1ccccc1CC(=N)NOC(=O)/C=C/c1ccccc1	-1.33
COCCNC(=O)Cn1ncc2ccccc21	4.84
CCN(CC)S(=O)(=O)c1ccc(Cl)c(C(=O)Nc2cccc(C(C)=O)c2)c1	-3.24
Cc1cc(OCC(=O)ONC(=O)c2ccc(Cl)cc2)ccc1Br	-0.386
O=C(Nc1ccc2c3c(cccc13)CC2)c1ccccc1F	1.29
c1ccc(-c2ccc(CN3CCOCC3)cc2)cc1	-0.0494
CCc1nn(CC(=O)NCCOC)c(=O)c2cc3ccccc3n12	3
CC(C)C[C@H](NC(=O)N1CCN(C(=O)C2CCCO2)CC1)C(=O)NCC#N (some centres unmarked)	2.87

Compound	% Inhibition @ 10 uM [%]
Cc1cc(-c2ccco2)c(C#N)c(SCC(=O)c2ccc(O)c(O)c2)n1	12.5
CC1(C)CC(=O)c2cnc(NC(=O)CSc3nc4ccccc4o3)nc2C1	-13.3
CCOC(=O)CNS(=O)(=O)c1ccccc1	-3.62
CC(C)(C)c1ccc(S(=O)(=O)Nc2cc(SCC(=O)O)c(O)c3ccccc23)cc1	4.11
O=c1c(CN2CCN(c3ccc(Cl)cc3)CC2)coc2c(Cl)cc(Cl)cc12	2.1
COc1ccccc1N1CCN(S(=O)(=O)c2c(C)cc(C)cc2C)CC1	0.273
COc1cccc(/C=C2/SC(=O)N(CC(=O)Nc3ccc(C)cc3)C2=O)c1O	30.1
COc1ccccc1/C=C/c1nn2c(C3COc4ccccc4O3)nnc2s1 (centres unmarked)	50.2
CCC(C)NC(=O)CN1CCN(Cc2ccc(Cl)cc2)C1=O (centres unmarked)	-3.28
COc1cccc2c1OC1(C)CC2NC(=S)N1 (centres unmarked)	-7.6
CCCCN(C)CCNC(=O)Cn1ncc2c(=O)oc3ccc(C)cc3c21	3.2
COCc1nc2ccccc2n1Cc1ccc(C(C)C)cc1	4.3
CC1=C(c2ccc(C)cc2)S(=O)(=O)N=C1N1CCN(Cc2ccccc2)CC1	3.87
O=S(=O)(c1ccccc1)N1N=C(c2ccc(Cl)cc2)CC1c1ccco1 (centres unmarked)	0.59
CCOC(=O)c1c(C)n(C)c2ccc(OCC(O)CNCCc3ccccc3)cc12 (centres unmarked)	0.415
CCCNC(=O)c1cc(-c2ccc(O)cc2)on1	1.37
CN(C)c1ccc(-c2ccncc2)cc1	2.76
Cc1ccc2nc(NC(=O)C3CCCN3S(=O)(=O)c3cccc4nsnc34)sc2c1 (centres unmarked)	-2.25
Cc1ccc(S(=O)(=O)Nc2nc3ccccc3nc2N2CCCCC2)cc1	-0.969
O=C1CC(NCCCN2CCOCC2)C(=O)N1c1ccccc1 (centres unmarked)	4.98
COCc1cc(C)nc2sc(C(=O)c3ccc(F)cc3F)c(N)c12	-0.947
Cc1nc2c(c(C)c1CCC(=O)N1CCN(C=O)CC1)c(=O)n(C)c(=O)n2C	5.13
CCc1ccc(C2N3CC4(C)CN2CC(C)(C3)C4)cc1 (centres unmarked)	3.25
